# In the supplement of paper PMC6746778:
# Where “and” joins values, the source holds several entries; their conditions need not be identical. Identical values can stand only once. Some of the results follow. Single values are uncertain, as repeats are few or missing.
# Legend:
# Assay in all cases: proliferation Z-score within cell line (SRB, relative to all inhibitors screened on that line); triple-negative breast cancer lines and a kinase inhibitor library; SRB is the sulforhodamine B protein stain; higher = less growth inhibition (more resistant)
# Conditions in all cases: concentration: 1 µM; 4 days
# Bt20 = test system: Bt20
# Bt549 = test system: Bt549
# HCC1143 = test system: HCC1143
# HCC1806 = test system: HCC1806
# HCC1937 = test system: HCC1937
# HCC38 = test system: HCC38
# HCC70 = test system: HCC70
# Hs578T = test system: Hs578T
# MDA-MB-231 = test system: MDA-MB-231
# MDA-MB-435s = test system: MDA-MB-435s
# MDA-MB-436 = test system: MDA-MB-436
# MDA-MB-453 = test system: MDA-MB-453
# MDA-MB-468 = test system: MDA-MB-468
# SKBR7 = test system: SKBR7
# SUM1315MO2 = test system: SUM1315MO2
# SUM149PT = test system: SUM149PT
# SUM159PT = test system: SUM159PT
# SUM185PE = test system: SUM185PE
# SUM229PE = test system: SUM229PE
# SUM52PE = test system: SUM52PE
# 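Further: Single-dose primary screen of a 378-member kinase inhibitor library in 96-well plates, with growth read as absorbance of protein-bound SRB dye after TCA fixation.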
SMILES,proliferation Z-score within cell line (Bt20),proliferation Z-score within cell line (Bt549),proliferation Z-score within cell line (HCC1143),proliferation Z-score within cell line (HCC1806),proliferation Z-score within cell line (HCC1937),proliferation Z-score within cell line (HCC38),proliferation Z-score within cell line (HCC70),proliferation Z-score within cell line (Hs578T),proliferation Z-score within cell line (MDA-MB-231),proliferation Z-score within cell line (MDA-MB-435s),proliferation Z-score within cell line (MDA-MB-436),proliferation Z-score within cell line (MDA-MB-453),proliferation Z-score within cell line (MDA-MB-468),proliferation Z-score within cell line (SKBR7),proliferation Z-score within cell line (SUM1315MO2),proliferation Z-score within cell line (SUM149PT),proliferation Z-score within cell line (SUM159PT),proliferation Z-score within cell line (SUM185PE),proliferation Z-score within cell line (SUM229PE),proliferation Z-score within cell line (SUM52PE)
Cn1c(Nc2ccc(C(F)(F)F)cc2)nc2cc(Oc3ccnc(-c4ncc(C(F)(F)F)[nH]4)c3)ccc21,-0.383,-0.689,1,-0.492,0.792,0.603,0.599,-0.0347,-1.24,-1.7,0.503,0.263,-1.24,-0.457,-1.32,-0.458,0.645,0.28,-0.739,0.456
CN(C)c1ccc(-c2nc3ncc(Cl)c(N4CCN(CC(=O)Nc5nccs5)CC4)c3[nH]2)cc1,0.421,0.557,0.763,0.76,0.485,0.602,0.692,0.631,0.703,0.743,0.327,0.803,0.745,1.13,0.312,0.836,0.683,0.509,0.431,0.0679
COc1cc(Nc2c(C#N)cnc3cc(OCCCN4CCN(C)CC4)c(OC)cc23)c(Cl)cc1Cl [Bosutinib (SKI-606)],-0.561,0.298,0.391,-1.7,-1.01,-0.486,-0.304,0.394,-0.0185,-0.119,-0.74,0.464,0.255,-0.265,-0.437,-0.586,0.224,0.572,-0.593,-0.083
Fc1cc(-c2cccc3ncc(-c4cnn(C5CCNCC5)c4)nc23)cc(F)c1CN1CCOCC1,0.885,0.871,0.766,0.862,0.715,0.655,0.665,0.761,0.957,0.713,0.405,0.96,0.805,0.185,0.872,0.914,0.523,0.396,0.605,0.772
C[C@@]1(C(=O)Nc2ccc(F)nc2)CCCN1c1nc(Nc2cc(C3CC3)n[nH]2)c2cccn2n1,-2.01,-0.269,0.317,-0.663,0.602,-0.924,0.865,-0.521,-1.2,-1.59,0.839,-0.6,-1.63,-1.96,-1.01,-1.57,0.593,-0.684,-1.18,-1.16
CCOc1cc(N2CCC(O)CC2)ccc1Nc1ncc2c(n1)N(C)c1ccccc1C(=O)N2C,0.816,0.594,0.485,0.636,0.637,0.232,0.52,0.503,0.632,0.714,0.8,0.646,0.806,0.615,0.95,0.764,0.446,0.921,0.61,0.813
Cc1ccc(C(=O)Nc2ccc(CN3CCN(C)CC3)c(C(F)(F)F)c2)cc1C#Cc1cnc2cccnn12,-0.756,0.558,1.08,1.58,0.844,0.723,0.749,0.338,-2.04,-1.75,0.764,-0.0258,-0.462,1.39,-1.9,-0.291,0.619,-1.72,-1.09,-1.47
CCc1cccc(CC)c1NC(=O)N1Cc2[nH]nc(NC(=O)c3ccc(N4CCN(C)CC4)cc3)c2C1,-0.719,-0.411,0.902,0.0633,0.963,-0.54,0.876,0.152,-0.78,-0.176,0.753,-0.905,-1.5,-1.08,-1.06,-0.0152,0.41,-1.79,0.0059,-1.44
C[C@@H]1CCN(C(=O)CC#N)C[C@@H]1N(C)c1ncnc2[nH]ccc12,–,0.792 and 0.444,0.749 and 0.316,0.817 and 0.744,0.771 and 0.641,0.69 and 0.431,0.847 and 0.507,0.803 and 0.538,0.889 and 0.42,1.01 and 0.57,0.735 and 0.535,1.08 and 0.767,0.778 and 0.397,0.778 and 0.652,0.944 and 0.437,0.971 and 0.55,0.741 and 0.558,–,0.846 and 0.481,–
O=C(Nc1ccc(OC(F)(F)F)cc1)c1sccc1NCc1ccnc2ccccc12,0.429,0.615,0.629,1.22,0.555,0.292,0.487,0.399,0.697,0.628,0.463,0.726,0.485,0.739,0.472,0.715,0.393,0.159,1.42,0.446
Cc1ccc(-c2nn(C(C)(C)C)c3ncnc(N)c23)cc1,0.261,0.712,0.813,0.352,0.624,0.491,0.655,0.618,0.587,0.585,0.966,1.09,1.01,0.824,0.489,0.734,0.579,1.46,0.887,0.861
CS(=O)(=O)c1cccc(CNc2nc(Nc3ccc4c(c3)CCC(=O)N4)ncc2C(F)(F)F)c1,0.745,0.493,0.842,-0.171,-0.861,0.533,-1.76,0.622,0.379,0.382,-0.403,0.894,0.872,0.35,0.104,0.37,0.616,-0.263,0.535,-1.08
Cc1ccc(C(=O)Nc2cccc(C(F)(F)F)c2)cc1Nc1nc(-c2cccnc2)nc2c1cnn2C,1.23,0.813,1.16,0.367,0.729,0.536,0.793,0.613,0.469,0.933,0.667,0.675,0.282,0.883,1.14,1.2,0.581,1.01,1.13,0.45
CC[C@@H]1C(=O)N(C)c2cnc(Nc3ccc(C(=O)NC4CCN(C)CC4)cc3OC)nc2N1C1CCCC1,-1.91,-3.27,-2.02,-2.26,-1.37,-3.79,-1.6,-1.87,-2.01,-2.53,-1.56,-2.01,-1.94,-2.74,-2.52,-2.72,-2.77,-1.13,-1.17,-1.14
CC(C)(C)c1cc(/C=C(\C#N)C(N)=S)cc(C(C)(C)C)c1O [Tyrphostin AG 879],0.528,0.694,0.746,0.841,0.625,0.473,0.676,0.63,1.06,0.725,0.656,0.954,0.938,0.74,0.696,0.686,0.491,0.7,0.563,0.917
